Results from the supplement of paper PMC5998384.

Experiments:
[1] = tested on: HeLa Kyoto; experiment: solubility in G1/S (NP-40 vs SDS abundance) (log2 ratio); higher = more soluble; details: cell cycle stage: G1/S
[2] = tested on: HeLa Kyoto; experiment: melting temperature (median over replicates), in situ; higher = more thermally stable
[3] = tested on: HeLa Kyoto; experiment: solubility change mitosis vs G1/S (difference of NP-40 vs SDS log2 ratios) (log2 ratio difference); higher = more soluble in mitosis
[4] = tested on: HeLa Kyoto; experiment: thermal stability score vs G1/S (z-score of summed log2 fold changes over temperatures); higher = more thermally stable than in G1/S
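For melting temperature (median over replicates), in situ in this document: HeLa Kyoto cells synchronized by double thymidine or nocodazole block, proteins quantified by TMT10plex mass spectrometry, three independent biological replicates.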
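For solubility change mitosis vs G1/S (difference of NP-40 vs SDS log2 ratios) in this document: synchronized HeLa Kyoto cells (double thymidine block for G1/S, nocodazole release for mitosis), protein amounts in NP-40 versus SDS lysates quantified by mass spectrometry, three biological replicates.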
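For solubility in G1/S (NP-40 vs SDS abundance) in this document: HeLa Kyoto cells arrested at G1/S by double thymidine block, proteins quantified by TMT10plex mass spectrometry in mild NP-40 versus SDS extracts, three biological replicates.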
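For thermal stability score vs G1/S (z-score of summed log2 fold changes over temperatures) in this document: synchronized HeLa Kyoto cells, proteins quantified by TMT10plex mass spectrometry, three biological replicates, mitosis taken 0.5 h after nocodazole release, G1/S directly after double thymidine block.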

Row | Substance | solubility in G1/S (log2) [1] | melting temperature ([2]; cell cycle stage: G1/S) | melting temperature ([2]; cell cycle stage: mitosis) | solubility change mitosis (log2) [3] | thermal stability score ([4]; cell cycle stage: early G1 (4.5 h after nocodazole release)) | thermal stability score ([4]; cell cycle stage: mitosis)
1 | PEA15 (sequence left out) | -0.0118 | 51.8 °C | 51.1 °C | 0.0788 | – | –
2 | GOLGA7 (sequence left out) | -0.29 | 55.9 °C | 56.1 °C | 0.00572 | 0.542 | 0.782
